From PubChem BioAssay AID624417 (National Center for Advancing Translational Sciences (NCATS), 2012)
Among all 410,000 compounds or so, about 6,400 (1.6%) were called active. The inconclusive results got no clear call from the source; some entries with a clear call stand among them for comparison. Calls come from the whole dose curve; as a rule, active = well fitted inhibition curve with a large enough effect; inconclusive = small, poorly fitted or top-dose-only effect; inactive = no such curve, though single readings can be large or run the other way. No potency is given beside an inconclusive call; the fits are too rough.

Each compound was assayed against Glucagon-like peptide 1 receptor (Homo sapiens) (UniProt P43220) (assay: qHTS of GLP-1 Receptor Inverse Agonists (Inhibition Mode)). Conditions: HEK293 GLP-1R CRE-luciferase, luminescence, 24 h, GLP-1R form is constitutively active; series mostly up to 38.3 µM.
UniProt P43220, sequence (P43220 whole entry, looked up): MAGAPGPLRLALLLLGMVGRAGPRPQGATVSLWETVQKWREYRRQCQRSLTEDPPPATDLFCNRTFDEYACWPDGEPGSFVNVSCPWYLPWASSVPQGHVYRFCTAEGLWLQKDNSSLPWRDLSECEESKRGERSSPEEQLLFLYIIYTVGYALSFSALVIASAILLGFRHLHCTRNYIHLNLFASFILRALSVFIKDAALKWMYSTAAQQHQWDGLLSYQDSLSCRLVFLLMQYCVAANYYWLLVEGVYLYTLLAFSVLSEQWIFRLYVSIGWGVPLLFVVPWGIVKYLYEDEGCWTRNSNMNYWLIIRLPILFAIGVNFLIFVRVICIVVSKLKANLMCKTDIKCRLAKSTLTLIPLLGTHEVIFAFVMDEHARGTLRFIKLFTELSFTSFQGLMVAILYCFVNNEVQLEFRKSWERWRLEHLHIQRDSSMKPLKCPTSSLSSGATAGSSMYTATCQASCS
Method in brief: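 HEK293 cells stably co-expressing constitutively active GLP-1R and a cAMP-responsive luciferase reporter were seeded in DMEM with 10% Nu serum, given compounds after 12 h, and incubated 24 h at 37 deg C. Luminescence was then read.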
Note: nearly all actives have a fitted effect of over 55% in size.
Potency is the fitted concentration of half-maximal effect; tags give direction and shape of the fitted curve.

SMILES	Potency
Cc1ccc(S(=O)(=O)NCCCCCC(N)=O)cc1	inactive
COc1ccc2nc(SC(C)C(=O)NC3CCCC3)[nH]c2c1 (configuration not stated)	inconclusive [inhibitor, partial curve, poor fit]
Cc1c(C(=O)NCc2ccc(F)cc2)oc2ccc(S(=O)(=O)N3CCCCC3)cc12	active: 10 µM
CCOC(=O)C1CCCN(c2nc3c(S(=O)(=O)c4ccc(CC)cc4)nnn3c3ccsc23)C1 (configuration not stated)	inactive
CCOc1ccc(OCc2ccc(C(=O)NN=Cc3ccc[nH]3)cc2)cc1	inconclusive [inhibitor, full curve, poor fit]
COc1ccc(NC(=O)[C@H]2O[C@@H]3OC(C)(C)O[C@@H]3[C@H]3OC(C)(C)O[C@H]32)c(OC)c1	inactive
CC(C)CCNC(=O)CN1C(=O)CSc2ccc(S(=O)(=O)N3CCC(C)CC3)cc21	inconclusive [inhibitor, partial curve]
O=C1Nc2ccccc2N=C(c2ccc3c(c2)OCO3)C1N(C(=O)c1ccc2ccccc2c1)C1CC1 (configuration not stated)	inconclusive [inhibitor, single point]
COc1ccc(C)cc1NC(=O)C(Sc1nnc(-c2ccncc2)n1-c1ccc(Cl)cc1)c1ccccc1 (configuration not stated)	inconclusive [inhibitor, partial curve, poor fit]
COc1ccccc1CCn1cnc(C)c1CC(C)C	inconclusive [inhibitor, single point]
CC(C)(C)c1ccc(OCCCC(=O)NNC(=O)c2ccccc2O)cc1	active: 12.6 µM
NC(=O)c1ccccc1N/C=C/C(=O)c1ccc(Cl)cc1	inconclusive [inhibitor, single point]
Cc1ccc2nc(-c3cccs3)c(Nc3c(C)cccc3C)n2c1	inconclusive [inhibitor, single point]
CN(C)c1ccc(/C=C/c2nc(-c3ccccc3O)n(-c3ccccc3)n2)cc1	inconclusive [inhibitor, partial curve, poor fit]
Cc1c(Cl)cccc1NC(=S)NCC(C)C	inconclusive [inhibitor, single point]
O=C(NN1CCCCC1)c1cccc(COc2ccc(Cl)cc2)c1	inconclusive [inhibitor, single point]
O=C(CSc1nc2cc(C(F)(F)F)ccc2n1Cc1ccccc1)NC1CCS(=O)(=O)C1 (configuration not stated)	inconclusive [inhibitor, single point]
Cc1ccc(S(=O)(=O)N2CCCCC2)cc1C(=O)OC(C)C(=O)NC1CCCCC1C (configuration not stated)	inconclusive [inhibitor, partial curve, poor fit]
O=C(NC1=NCCS1)c1ccc(C(F)(F)F)cc1	inactive
Cc1ccccc1Oc1nc2ccccn2c(=O)c1/C=C(\C#N)c1nc2ccccc2[nH]1	inactive
Cc1ccccc1-c1noc(CCC(=O)NCCc2ccccc2)n1	inconclusive [inhibitor, single point]

SMILES	Potency
Cc1ccc([C@@H]2CC=C(C(=O)O)[C@H](c3ccccc3)N2S(=O)(=O)c2ccccc2C)cc1	inconclusive [inhibitor, partial curve, poor fit]
Nc1c(S(=O)(=O)O)cc(NC(=O)c2ccccc2)c2c1C(=O)c1ccccc1C2=O	inconclusive [inhibitor, partial curve, poor fit]
COc1cc(NC(=O)CN2CCN(S(=O)(=O)c3ccc(C(C)C)cc3)CC2)cc(OC)c1	inconclusive [inhibitor, partial curve, poor fit]
CC(C)(C)c1ccccc1OCC(=O)NCc1ccccc1	inconclusive [inhibitor, partial curve, poor fit]
N=c1n(CCO)c2ccccc2n1Cc1ccc(Cl)cc1	inconclusive [inhibitor, partial curve, poor fit]
Cc1ccc(-c2nnn(CC(=O)NC(=O)NC3CCCCC3)n2)cc1	inconclusive [inhibitor, single point]
CC1CCCN(CC(=O)Nc2cc(S(=O)(=O)N3CCOCC3)ccc2N2CCCC2)C1 (configuration not stated)	inactive
COc1ccc(C2Oc3ccccc3C3=C2C(c2cccs2)n2ncnc2N3)cc1 (configuration not stated)	inconclusive [inhibitor, partial curve, poor fit]
Fc1ccc(CNc2ncnc3cc(Cl)ccc23)cc1	inconclusive [inhibitor, partial curve, poor fit]
CCC(NS(=O)(=O)c1cn(C)nc1C)c1ccccc1 (configuration not stated)	inconclusive [inhibitor, partial curve, poor fit]
Cc1ccc(-c2csc(-c3nc(-c4ccc(Br)s4)cs3)n2)cc1	inactive
Cc1ccc(-n2cccn2)c(CN2CCCC(C(=O)c3ccc4c(c3)OCO4)C2)c1 (configuration not stated)	inconclusive [inhibitor, partial curve, poor fit]
COc1ccc(CC(=O)Nc2ccc3c(c2)OC2(CCCC2)O3)c(OC)c1	inconclusive [inhibitor, partial curve, poor fit]
Cc1cccc(Cc2cccc(C)c2O)c1O	inconclusive [inhibitor, partial curve, poor fit]
O=C(Nc1ccc2ccccc2c1)C(c1ccc(C(F)(F)F)cc1)n1c(=O)c(-c2cc3ccccc3[nH]2)nc2ccccc21 (configuration not stated)	inconclusive [inhibitor, full curve, poor fit]
Cc1nn(-c2ccccc2)c2c1C(c1ccc(O)c(O)c1)N1C(=N2)C(Nc2ccccc2)=Nc2ccccc21 (configuration not stated)	inactive
Cc1ccc(O)c(-c2cc(-c3ccccc3F)[nH]n2)c1	inconclusive [inhibitor, single point]
CC1(C(=O)OCC(=O)Nc2cc(S(=O)(=O)N3CCOCC3)ccc2Cl)CC1(Cl)Cl (configuration not stated)	inconclusive [inhibitor, single point]
CC(C)(C)C1CCc2c(sc(NC(=O)c3cc4ccccc4c(=O)o3)c2C(N)=O)C1 (configuration not stated)	inactive
COC(=O)c1ccc(NC(=S)NC2CCCCC2)cc1	inconclusive [inhibitor, single point]
O=C(CCN1C(=O)/C(=C/c2ccc(F)cc2)SC1=S)NCCc1cnc[nH]1	inconclusive [inhibitor, partial curve, poor fit]

SMILES	Potency
Cc1nc([N+](=O)[O-])c(NCCO)n1Cc1ccccc1	inactive
Cc1nn(Cc2cccc(F)c2)c(C)c1NC(=O)c1ccc(COc2ccccc2Cl)cc1	inactive
Clc1ccc2nc(C3CCCCC3)c(Cc3ccsc3)n2c1	inconclusive [inhibitor, partial curve, poor fit]
O=C(COC(=O)c1cccc(S(=O)(=O)NCc2ccccc2)c1)c1ccccc1	inconclusive [inhibitor, single point]
CCC(NC(=O)c1ccc([N+](=O)[O-])cc1[N+](=O)[O-])c1ccccc1 (configuration not stated)	inconclusive [inhibitor, full curve, poor fit]
CCOc1ccc(/C=N/Nc2ccccn2)cc1	inconclusive [inhibitor, single point]
Cc1ccc(C(CNS(=O)(=O)c2ccc(Cl)cc2)N2CCN(C)CC2)cc1 (configuration not stated)	inconclusive [inhibitor, partial curve, poor fit]
Cc1nn(S(=O)(=O)c2ccc(C(C)C)cc2)c(C)c1S(=O)(=O)N1CCOCC1	inconclusive [inhibitor, partial curve, poor fit]
COc1ccc(C2(OC)Oc3cc(OC)ccc3C(=O)C2(O)OC)cc1 (configuration not stated)	inconclusive [inhibitor, partial curve]
CC1CCCN(C(=O)CNC(=O)c2cccs2)C1 (configuration not stated)	inactive
Cc1cccc(N(C)c2nc3ccc(C(=O)c4ccccc4)cc3n3c(C)nnc23)c1	inactive
COc1ccc(S(=O)(=O)N2CCN(C(=O)CCc3c[nH]c4ccccc34)CC2)cc1	inconclusive [inhibitor, partial curve, poor fit]
CCN(CC)c1nc2ccccc2nc1C(=O)Nc1ccc(C(C)=O)cc1	inconclusive [inhibitor, single point]
Cc1ccc(-n2nnnc2SCC(=O)Nc2ccccc2-c2ccccc2)cc1C	inconclusive [inhibitor, partial curve, poor fit]
CN(Cc1ccccc1)CC(O)COc1ccc(CNCc2cccnc2)cc1 (configuration not stated)	inconclusive [inhibitor, partial curve, poor fit]
O=C(c1cc2nc(-c3ccccc3)cc(-c3ccccc3)n2n1)N1CCN(C(=O)c2ccco2)CC1	inconclusive [inhibitor, partial curve, poor fit]
CCc1cccc(NC(=O)c2cc3c(=O)n(Cc4ccccc4)ccc3nc2C)c1	inconclusive [inhibitor, partial curve, poor fit]
CCN1C(c2ccc(F)cc2)=CS/C1=C(/C#N)c1nnc2n1-c1ccccc1SC2	inconclusive [inhibitor, partial curve]
COc1ccc(N2CC(C(=O)Nc3nnc(SCC(=O)NCC4CCCO4)s3)CC2=O)cc1 (configuration not stated)	inactive
Cc1nn(-c2ccc(F)cc2)c(C)c1CN1CCN(CCc2ccccc2)C(CCO)C1 (configuration not stated)	inconclusive [inhibitor, partial curve, poor fit]
